Test results taken from PubChem BioAssay (NCI).
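Cells were grown in 96-well plates and exposed to each compound for 48 hours at five concentrations; endpoints were interpolated linearly between bracketing concentrations, or set to the highest concentration if not reached. The concentration for 50% growth inhibition is given as GI50. TGI denotes the concentration required for complete inhibition of growth.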

System: NCI-H322M lung
Test: inhibition of tumour cell growth, NCI panel, 48 h

CN1CCc2c(sc3ncnc(N/N=C/c4cccc(Cl)c4Cl)c23)C1
GI50: 4.7 µM | TGI: 16.2 µM

COc1ccc2oc3c4[nH]c5ccccc5c4c4c(c3c2c1)C(=O)N(C(=O)OC(C)(C)C)C4=O
GI50: 3.04 µM | TGI: 65.5 µM
